Results taken from the supplement of paper PMC4967469.
pIC50: −log10 of the molar value. By IC50 is meant the dose at which the fit gives 50% viability; a fit beyond the top or the lowest dose is shown as a bound at that dose. AUC, from the same fit, is the share of area under the viability curve across the 256-fold dose range; it is 1 without any effect and falls as sensitivity rises. For some of these results: An inferred top dose comes from the curve model; the source does not state it.

Legend:
Assay in all cases: Viability of human cancer cell lines after 72 h of drug (GDSC screen)
AT-7519 = compound: O=C(NC1CCNCC1)c1n[nH]cc1NC(=O)c1c(Cl)cccc1Cl [AT-7519]; conditions: top dose 10.24 µM; top dose inferred
Protocol: (§1)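 Human cancer cell lines in 384-well plates, medium with 10% serum, drug for 72 h over a 256-fold dose range (nine 2-fold or five 4-fold steps up to the top dose). Adherent lines were fixed and stained with the nucleic acid dye Syto60, suspension lines read with resazurin; signal relative to control wells, capped at 0 and 100%. One two-parameter sigmoid per drug and line, fitted in a mixed model over all curves with the slope shared within a line.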

A-443654 = compound: Cc1n[nH]c2ccc(-c3cncc(OC[C@@H](N)Cc4c[nH]c5ccccc45)c3)cc12 [A-443654]; conditions: top dose 1.024 µM; top dose inferred
Protocol: as §1

Dasatinib = compound: Cc1nc(Nc2ncc(C(=O)Nc3c(C)cccc3Cl)s2)cc(N2CCN(CCO)CC2)n1 [Dasatinib]; conditions: top dose 1.28 µM
Protocol: as §1

FH535 = compound: Cc1cc([N+](=O)[O-])ccc1NS(=O)(=O)c1cc(Cl)ccc1Cl [FH535]; conditions: top dose 32 µM; top dose inferred
Protocol: as §1

XMD14-99 = compound: COc1cc(N2CCN(C)CC2)ccc1Nc1nc(N)c(C(=O)c2c(Cl)cccc2Cl)s1 [XMD14-99]; conditions: top dose 10.24 µM; top dose inferred
Protocol: as §1

Cell Line	AUC (AT-7519)	pIC50 (AT-7519)	AUC (A-443654)	pIC50 (A-443654)	AUC (Dasatinib)	pIC50 (Dasatinib)	AUC (FH535)	pIC50 (FH535)	AUC (XMD14-99)	pIC50 (XMD14-99)
RL (B-cell lymphoma, suspension)	0.297	6.74	0.99	< 5.99	0.99	< 5.89	0.881	4.54	0.976	< 4.99
TGW (neuroblastoma, adherent)	0.856	5.19	0.834	6.27	0.943	< 5.89	0.872	4.63	0.972	< 4.99
TE-5 (oesophagus, adherent)	0.784	5.30	0.627	6.82	0.86	< 5.89	0.666	5.20	0.982	< 4.99
SK-MM-2 (myeloma, suspension)	0.786	5.33	0.846	6.10	0.983	< 5.89	0.89	< 4.49	0.925	< 4.99
SK-PN-DW (Ewing sarcoma, adherent)	0.76	5.43	0.701	6.62	0.944	< 5.89	0.755	4.95	0.985	< 4.99
NMC-G1 (glioma, adherent)	0.774	5.30	0.837	6.04	0.548	6.95	0.67	5.18	0.942	< 4.99
NCI-SNU-16 (stomach, suspension)	0.556	6.05	0.801	6.36	0.975	< 5.89	0.926	< 4.49	0.991	< 4.99
NCI-H716 (large intestine, suspension)	0.721	5.49	0.98	< 5.99	0.98	< 5.89	0.922	< 4.49	0.944	< 4.99
A101D (melanoma, adherent)	0.851	< 4.99	0.601	6.89	0.733	6.36	0.613	5.36	0.981	< 4.99
VA-ES-BJ (soft tissue, adherent)	0.885	< 4.99	0.623	6.84	0.399	7.38	0.427	5.90	0.986	< 4.99
NB-4 (acute myeloid leukaemia, suspension)	0.17	7.08	0.797	6.41	0.991	< 5.89	0.719	5.14	0.839	5.28
NCI-H1355 (lung adenocarcinoma, adherent)	0.928	< 4.99	0.551	7.03	0.485	7.15	0.543	5.56	0.976	< 4.99
OMC-1 (cervix, adherent)	0.722	5.55	0.697	6.63	0.97	< 5.89	0.703	5.11	0.982	< 4.99
JSC-1 (B-cell lymphoma, suspension)	0.408	6.44	0.666	6.74	0.948	< 5.89	0.739	5.02	0.813	5.26
KP-N-YS (neuroblastoma, adherent)	0.555	6.03	0.846	6.04	0.832	6.00	0.791	4.78	0.935	< 4.99
BT-474 (breast, adherent)	0.737	5.47	0.803	–	0.983	< 5.89	0.645	5.27	0.986	< 4.99
KM-H2 (Hodgkin lymphoma, suspension)	0.62	5.89	0.862	6.17	0.988	< 5.89	0.834	4.78	0.971	< 4.99
IA-LM (large cell lung carcinoma, adherent)	0.78	5.32	0.687	6.64	0.947	< 5.89	0.559	5.53	0.969	< 4.99
Becker (glioma, adherent)	0.835	5.10	0.727	6.51	0.394	7.40	0.733	5.00	0.98	< 4.99
NCI-H1666 (lung adenocarcinoma, semi-adherent)	0.84	5.09	0.986	< 5.99	0.965	< 5.89	0.891	< 4.49	0.987	< 4.99

Cell Line	AUC (AT-7519)	pIC50 (AT-7519)	AUC (A-443654)	pIC50 (A-443654)	AUC (Dasatinib)	pIC50 (Dasatinib)	AUC (FH535)	pIC50 (FH535)	AUC (XMD14-99)	pIC50 (XMD14-99)
HD-MY-Z (Hodgkin lymphoma, adherent)	0.391	6.49	0.791	6.33	0.94	< 5.89	0.788	4.85	0.957	< 4.99
NALM-6 (B-cell leukaemia, suspension)	0.237	6.88	0.613	6.91	0.645	6.73	0.692	5.21	0.86	5.19
ML-2 (acute myeloid leukaemia, suspension)	0.293	6.74	0.671	6.74	0.988	< 5.89	0.719	5.12	0.953	< 4.99
HA7-RCC (kidney, adherent)	0.869	< 4.99	0.777	6.34	0.405	7.37	0.726	5.02	0.981	< 4.99
A3-KAW (B-cell lymphoma, suspension)	0.348	6.57	0.685	6.73	0.874	6.08	0.747	5.07	0.945	< 4.99
LC4-1 (lymphoblastic leukaemia, suspension)	0.266	6.90	0.667	6.70	0.975	< 5.89	0.786	4.81	0.835	5.11
HCE-4 (oesophagus, adherent)	0.913	< 4.99	0.575	7.00	0.644	6.73	0.535	5.61	0.992	< 4.99
ST486 (Burkitt lymphoma, suspension)	0.148	7.21	0.694	6.68	0.937	< 5.89	0.651	5.30	0.894	5.00
HOP-62 (lung adenocarcinoma, adherent)	0.438	6.36	0.631	6.83	0.33	7.57	0.623	5.36	0.975	< 4.99
NCI-H1581 (large cell lung carcinoma, semi-adherent)	0.832	5.23	0.811	6.31	0.969	< 5.89	0.758	4.99	0.99	< 4.99
RPMI-6666 (Hodgkin lymphoma, suspension)	0.335	6.69	0.606	6.88	0.699	6.48	0.816	4.65	0.838	5.04
NCI-SNU-1 (stomach, suspension)	0.53	6.11	0.769	6.40	0.984	< 5.89	0.748	4.97	0.871	< 4.99
NB69 (neuroblastoma, adherent)	0.804	5.35	0.714	6.63	0.595	–	0.892	4.52	0.973	< 4.99
SK-LMS-1 (soft tissue, adherent)	0.615	5.89	0.752	6.49	0.922	< 5.89	0.554	5.56	0.978	< 4.99
EM-2 (chronic myeloid leukaemia, suspension)	0.388	6.52	0.741	6.46	0.106	> 8.30	0.792	4.78	0.981	< 4.99
MFH-ino (soft tissue, adherent)	0.839	5.05	0.638	6.78	0.423	–	0.322	6.24	0.979	< 4.99
GI-1 (glioma, adherent)	0.49	6.22	0.69	6.67	0.804	6.21	0.449	5.84	0.985	< 4.99
NCI-H2135 (non-small cell lung carcinoma, adherent)	0.568	6.01	0.912	< 5.99	0.978	< 5.89	0.718	5.09	0.98	< 4.99
NCI-H1770 (non-small cell lung carcinoma, suspension)	0.947	< 4.99	0.992	< 5.99	0.986	< 5.89	0.784	4.92	0.992	< 4.99
SHP-77 (small cell lung carcinoma, semi-adherent)	0.96	< 4.99	0.922	< 5.99	0.991	< 5.89	0.872	4.60	0.989	< 4.99
